Measured values published in patent US11028174 (LEPU BIOPHARMA, dated 2021).

Assays:
recombinant human TGF-β = recombinant human TGF-β (human, UniProt P01137 in part, The mature TGF-β1 is a disulfide-linked homodimer; one protomer is given.); assay: cell-based or functional assay
rat PD-L1 protein = rat PD-L1 protein (rat, UniProt D4AE25 19-239); assay: ELISA, coated rat PD-L1
Text: After washing, the plates were developed with TMB substrate and analyzed by spectrophotometer at OD 450 nm.

mouse PD-L1 protein = mouse PD-L1 protein (mouse, UniProt Q9EP73 in part, limits assumed); assay: ELISA, coated mouse PD-L1
human TGF-β1 protein [1] = target: T1, human TGF-β1 protein (human, UniProt P01137 in part); assay: cell-based or functional assay
human TGF-β1 protein [2] = target: T1, human TGF-β1 protein; assay: cell-based or functional assay; remark: listed apart in the source
T1 sequence (P01137 279-390 limits assumed): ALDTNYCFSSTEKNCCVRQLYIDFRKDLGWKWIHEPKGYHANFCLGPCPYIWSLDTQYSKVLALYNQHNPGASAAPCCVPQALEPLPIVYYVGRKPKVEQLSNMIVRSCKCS

recombinant human TGF-β, sequence (P01137 279-390 limits assumed): as above
rat PD-L1 protein, sequence (D4AE25 entry or part of it limits assumed): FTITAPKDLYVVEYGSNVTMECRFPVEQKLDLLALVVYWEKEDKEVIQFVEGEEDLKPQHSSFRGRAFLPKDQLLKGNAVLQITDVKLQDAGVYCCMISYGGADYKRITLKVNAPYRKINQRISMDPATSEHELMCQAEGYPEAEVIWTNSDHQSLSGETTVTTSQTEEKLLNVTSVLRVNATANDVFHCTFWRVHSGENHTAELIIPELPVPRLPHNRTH
mouse PD-L1 protein, sequence (Q9EP73 19-239 limits assumed): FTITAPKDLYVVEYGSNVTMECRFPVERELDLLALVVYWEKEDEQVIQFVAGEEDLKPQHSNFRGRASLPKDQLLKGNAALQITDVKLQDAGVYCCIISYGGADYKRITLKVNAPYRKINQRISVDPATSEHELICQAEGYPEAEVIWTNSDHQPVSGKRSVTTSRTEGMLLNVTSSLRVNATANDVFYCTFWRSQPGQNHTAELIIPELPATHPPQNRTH

B1: LP008-02 (other)
heavy: EVQLVQSGAEVKKPGASVKVSCKASGYTFTDFWVSWVRQAPGQGLEWMGEIYPNSGVSRYNEKFKGRVTMTVDKSISTAYMELSRLRSDDTAVYYCTKYFGYTYWFGYWGQGTLVTVSSASTKGPSVFPLAPSSKSTSGGTAALGCLVKDYFPEPVTVSWNSGALTSGVHTFPAVLQSSGLYSLSSVVTVPSSSLGTQTYICNVNHKPSNTKVDKRV[human IgG1 Fc omitted]GGGGSGGGGSGGGGSGGGGSGIPPHVQKSVNNDMIVTDNNGAVKFPQLCKFCDVRFSTCDNQKSCMSNCSITSICEKPQEVCVAVWRKNDENITLETVCHDPKLPYHDFILEDAASPKCIMKEKKKPGETFFMCSCSSDECNDNIIFSEEYNTSNPD
light: DIQMTQSPSSLSASVGDRVTITCRASKSVSTYMHWYQQKPGKQPKLLIYSASHLESGVPSRFSGSGSGTDFTLTISSLQPEDFATYYCQQSNELPVTFGGGTKVEIKRTVAAPSVFIFPPSDEQLKSGTASVVCLLNNFYPREAKVQWKVDNALQSGNSQESVTEQDSKDSTYSLSSTLTLSKADYEKHKVYACEVTHQGLSSPVTKSFNRGEC
notes: Bifunctional anti-PD-L1 antibody (67F3G7 VH V2 / VL V4) whose heavy chain is fused through a (Gly4Ser)4Gly linker to the TGF-β RII extracellular domain; also called CZ010-02
With B1 the “TGF-β SMAD luciferase reporter assay in transfected 293 cells” value (“TGF-β SMAD luciferase reporter assay” below) (recombinant human TGF-β) was 0.0735 nM, the binding result (rat PD-L1 protein) was “no binding (tested: starting from 1 µg/ml)” and the binding result (mouse PD-L1 protein) was “no binding (tested: starting from 1 µg/ml)”.

B2: LP008-06a-ES (other)
heavy: EVQLVESGGGLVKPGGSLRLSCAASGFTFSNYWMTWIRQAPGKGLEWVASITNTGSSTFYPESVKGRFTISRDNAKNSLYLQMNSLRAEDTAVYYCTRDTTIAPFDYWGQGTMVTVSSASTKGPSVFPLAPSSKSTSGGTAALGCLVKDYFPEPVTVSWNSGALTSGVHTFPAVLQSSGLYSLSSVVTVPSSSLGTQTYICNVNHKPSNTKVDKRV[human IgG1 Fc omitted]GGGGSGGGGSGGGGSGGGGSGIPPHVQKSVNNDMIVTDNNGAVKFPQLCKFCDVRFSTCDNQKSCMSNCSITSICEKPQEVCVAVWRKNDENITLETVCHDPKLPYHDFILEDAASPKCIMKEKKKPGETFFMCSCSSDECNDNIIFSEEYNTSNPD
light: DIQMTQSPSSLSASVGDRVTITCKASQNLNEYLNWYQQKPGKAPKRLIYKTNTLQAGIPSRFSGSGSGTDYTLTISSLQPEDFATYYCSQYQSGNTFGQGTKLEIKRTVAAPSVFIFPPSDEQLKSGTASVVCLLNNFYPREAKVQWKVDNALQSGNSQESVTEQDSKDSTYSLSSTLTLSKADYEKHKVYACEVTHQGLSSPVTKSFNRGEC
notes: also called CZ010-06a-ES
In the case of B2, the “TGF-β SMAD luciferase reporter assay” value (recombinant human TGF-β) is reported as 0.0717 nM, the binding result (rat PD-L1 protein) is reported as “no binding (tested: starting from 1 µg/ml)” and the binding result (mouse PD-L1 protein) is reported as “no binding (tested: starting from 1 µg/ml)”.

B3: LP008-02-2 (other)
heavy: EVQLVQSGAEVKKPGASVKVSCKASGYTFTDFWVSWVRQAPGQGLEWMGEIYPNSGVSRYNEKFKGRVTMTVDKSISTAYMELSRLRSDDTAVYYCTKYFGYTYWFGYWGQGTLVTVSSASTKGPSVFPLAPSSKSTSGGTAALGCLVKDYFPEPVTVSWNSGALTSGVHTFPAVLQSSGLYSLSSVVTVPSSSLGTQTYICNVNHKPSNTKVDKRV[human IgG1 Fc omitted]GGGGSTAGHTQTSTGGGAITTGTSGAGHGPQLCKFCDVRFSTCDNQKSCMSNCSITSICEKPQEVCVAVWRKNDENITLETVCHDPKLPYHDFILEDAASPKCIMKEKKKPGETFFMCSCSSDECNDNIIFSEEYNTSNPD
light: B1 light
In the case of B3, the “TGF-β SMAD luciferase reporter assay” value (human TGF-β1 protein [1]) is reported as 0.143 nM.

B4: LP008-02-3 (other)
heavy: EVQLVQSGAEVKKPGASVKVSCKASGYTFTDFWVSWVRQAPGQGLEWMGEIYPNSGVSRYNEKFKGRVTMTVDKSISTAYMELSRLRSDDTAVYYCTKYFGYTYWFGYWGQGTLVTVSSASTKGPSVFPLAPSSKSTSGGTAALGCLVKDYFPEPVTVSWNSGALTSGVHTFPAVLQSSGLYSLSSVVTVPSSSLGTQTYICNVNHKPSNTKVDKRV[human IgG1 Fc omitted]GGGGSGGGGSGGGGSGGGGSGGGGSTAGHTQTSTGGGAITTGTSGAGHGPQLCKFCDVRFSTCDNQKSCMSNCSITSICEKPQEVCVAVWRKNDENITLETVCHDPKLPYHDFILEDAASPKCIMKEKKKPGETFFMCSCSSDECNDNIIFSEEYNTSNPD
light: B1 light
B4 was tested, and the “TGF-β SMAD luciferase reporter assay” value (human TGF-β1 protein [1]) was 0.164 nM.

B5: LP008-02-4 (other)
heavy: EVQLVQSGAEVKKPGASVKVSCKASGYTFTDFWVSWVRQAPGQGLEWMGEIYPNSGVSRYNEKFKGRVTMTVDKSISTAYMELSRLRSDDTAVYYCTKYFGYTYWFGYWGQGTLVTVSSASTKGPSVFPLAPSSKSTSGGTAALGCLVKDYFPEPVTVSWNSGALTSGVHTFPAVLQSSGLYSLSSVVTVPSSSLGTQTYICNVNHKPSNTKVDKRV[human IgG1 Fc omitted]GGGGSGGGGSGGGGSGGGGSGGGGSTAGHTQTSTGGGAITTGTSGAGHGPQLCKFCDVRFSTCDNQKSCMSNCSITSICEKPQEVCVAVWRKNDENITLETVCHDPKLPYHDFILEDAASPKCIMKEKKKPGETFFMCSCSSDECNDNIIFS
light: B1 light
With B5 the “TGF-β SMAD luciferase reporter assay” value (human TGF-β1 protein [1]) was 0.173 nM and the “IC50, SMAD luciferase reporter in transfected 293 cells with recombinant human TGF-β1; upper panel” value (from here on “IC50, SMAD luciferase reporter … upper panel”) (human TGF-β1 protein [2]) was 0.188 nM.

B6: LP008-02-1 (other)
heavy: B1 heavy
light: B1 light
For B6, the “IC50, SMAD luciferase reporter in transfected 293 cells with recombinant human TGF-β1; lower panel” value (“IC50, SMAD luciferase reporter … lower panel” for short) (human TGF-β1 protein [2]) was 0.143 nM and the “IC50, SMAD luciferase reporter … upper panel” value (human TGF-β1 protein [2]) was 0.13 nM.

B7: LP008-02-5 (other)
heavy: EVQLVQSGAEVKKPGASVKVSCKASGYTFTDFWVSWVRQAPGQGLEWMGEIYPNSGVSRYNEKFKGRVTMTVDKSISTAYMELSRLRSDDTAVYYCTKYFGYTYWFGYWGQGTLVTVSSASTKGPSVFPLAPSSKSTSGGTAALGCLVKDYFPEPVTVSWNSGALTSGVHTFPAVLQSSGLYSLSSVVTVPSSSLGTQTYICNVNHKPSNTKVDKRV[human IgG1 Fc omitted]SGGGGSGGGGSGGGGSGGGGSGGGGSHYPQLCKFCDVRFSTCDNQKSCMSNCSITSICEKPQEVCVAVWRKNDENITLETVCHDPKLPYHDFILEDAASPKCIMKEKKKPGETFFMCSCSSDECNDNIIFS
light: B1 light
For B7, the “IC50, SMAD luciferase reporter … upper panel” value (human TGF-β1 protein [2]) was 0.336 nM.

B8: LP008-02-6 (other)
heavy: EVQLVQSGAEVKKPGASVKVSCKASGYTFTDFWVSWVRQAPGQGLEWMGEIYPNSGVSRYNEKFKGRVTMTVDKSISTAYMELSRLRSDDTAVYYCTKYFGYTYWFGYWGQGTLVTVSSASTKGPSVFPLAPSSKSTSGGTAALGCLVKDYFPEPVTVSWNSGALTSGVHTFPAVLQSSGLYSLSSVVTVPSSSLGTQTYICNVNHKPSNTKVDKRV[human IgG1 Fc omitted]SGGGGSGGGGSGGGGSGGGGSGGGGSHYPQLCKFCDVRFSTCDNQKSCMSNCSITSICEKPQEVCVAVWRKNDENITLETVCHDPKLPYHDFILEDAASPKCIMKEKKKPGETFFMCSCSSDECNDNIIFSEEYNTSNPD
light: B1 light
B8 was tested, and the “IC50, SMAD luciferase reporter … lower panel” value (human TGF-β1 protein [2]) was 0.223 nM.

B9: LP008-02-7 (other)
heavy: EVQLVQSGAEVKKPGASVKVSCKASGYTFTDFWVSWVRQAPGQGLEWMGEIYPNSGVSRYNEKFKGRVTMTVDKSISTAYMELSRLRSDDTAVYYCTKYFGYTYWFGYWGQGTLVTVSSASTKGPSVFPLAPSSKSTSGGTAALGCLVKDYFPEPVTVSWNSGALTSGVHTFPAVLQSSGLYSLSSVVTVPSSSLGTQTYICNVNHKPSNTKVDKRV[human IgG1 Fc omitted]GGGGSGGGGSGGGGSHYPQLCKFCDVRFSTCDNQKSCMSNCSITSICEKPQEVCVAVWRKNDENITLETVCHDPKLPYHDFILEDAASPKCIMKEKKKPGETFFMCSCSSDECNDNIIFSEEYNTSNPD
light: B1 light
For B9, the “IC50, SMAD luciferase reporter … lower panel” value (human TGF-β1 protein [2]) was 0.408 nM.
